This is one part of the list.

T1: UNK ZnF1-3 (human, UniProt Q9C0B0 31-174)
T1 sequence: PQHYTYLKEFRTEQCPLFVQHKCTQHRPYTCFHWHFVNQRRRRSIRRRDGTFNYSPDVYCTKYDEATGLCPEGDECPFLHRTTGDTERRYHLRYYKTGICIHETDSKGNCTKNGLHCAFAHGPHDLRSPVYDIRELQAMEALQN

B1: chr17:60770872:60770873:+_ENSG00000011028_ENST00000303375|hu_hu|hu_hu_hu_mus_True|8_68 (ssRNA)
RNA: GGGAGUUCUACAGUCCGACGAUCUCUUUAAAAAAAAAAAAAAAAAGACAAACAAUAAUAGCACAUUAUUUAAAAAAAGAACUACAAUAGAGGGUCCGCUUUGAGUUUUUGUUCACAUCGUCCUGCAACGCUGUCGCGGGACUGCAACAGAGGAUUGAGCAUCA
B2: chr4:54876292:54876293:-_ENSG00000109220_ENST00000263921|perfect_dup|FALSE|FALSE (ssRNA)
RNA: GGGAGUUCUACAGUCCGACGAUCCUAUAAAUAAAGUAAAUGCUAAUCUGGUCGAAAAAUCGGUGUCUUUGGUAAAAAUUCUAUGAGGAUGACAUAUUCCAUCAUGUUAUUCGUUUCACAUUUCCUUUUGCUCAGUCUCCAAUGCAACAGAGGAUUGAGCAUCA
B3: chr2:74706439:74706440:+_ENSMUSG00000027099_ENSMUST00000155844|mus_hu|FALSE|FALSE (ssRNA)
RNA: GGGAGUUCUACAGUCCGACGAUCUGUAGCUUCAUCACACCACUGAAGAUACAGCUCUGCAGUCAACAGCAUAUUGUUGACUAAUUCCAUGUAAGCUUUCAUUUCUGCUUUUUGGACUUCCUCCAGCCCAUCACUAAGAGAAUGCAACAGAGGAUUGAGCAUCA
B4: chr12:39687257:39687258:-_ENSG00000139116_ENST00000551264|hu_mus|FALSE|FALSE (ssRNA)
RNA: GGGAGUUCUACAGUCCGACGAUCAAACCCAAUCAAACAGCACUUAGAAAUUCAUACAGUCAUAAUGCAAGAUAGUCUCUCUUUACAGUCUACUUAUUUACAUGGGUUCCCACCACAAAUGAUAACAGUCUACCAAUGUGUGCACAACAGAGGAUUGAGCAUCA
B5: chr8:80577206:80577207:+_ENSG00000104435_ENST00000220876|hu_hu|FALSE|FALSE (ssRNA)
RNA: GGGAGUUCUACAGUCCGACGAUCUUUUUUUUAAUUUUUGAUUUUUUUUGUUUUUUUUUUUUUAUAAUGAGUUCUUUUUAAACCAUGUCAUACAUUCCCCAUCCUGAUAUCGCAUGAUCCAUUAUAAUAUAGGCAGGGGGAUUUCAACAGAGGAUUGAGCAUCA
B6: chr1:43162399:43162400:+_ENSG00000065978_ENST00000321358|hu_hu|motif|central (ssRNA)
RNA: GGGAGUUCUACAGUCCGACGAUCAUUCUGGUAAUUUUGCUGGUAAUUGCGUGGAGGACCCCUACGACGUGGAUAGCGUCGGUAAUGGUUACGGUCUGCUGCAUAUUUACUGCCUUGAACUGGAACACCACCAGGACCUGUAACCAACAGAGGAUUGAGCAUCA

The target in this test is T1, UNK ZnF1-3. As to the kind of experiment: nsRBNS (natural sequence RNA bind-n-seq); RBNS binding buffer (assumed for nsRBNS): 25 mM Tris pH 7.5, 150 mM KCl, 3 mM MgCl2, 0.01% Triton X-100, 500 ug/ml BSA, 20 U/ml SUPERase-In, 4 C; UNK is unkempt and MSI1 is Musashi-1; names of the RNAs are library labels; protein concentration not given here; high values mean tight binding.
B1 had a binding signal of 2.2 enrichment R.

As to B2, the binding signal came to 1.28 enrichment R.

As to B3, the binding signal worked out at 0.571 enrichment R.

The molecule B4 came in with a binding signal of 1.47 enrichment R.

As to B5, the binding signal was determined as 1.55 enrichment R.

As for B6, the binding signal was 0.89 enrichment R.
